{
  "source": "the supplement of paper PMC8728848",
  "note": "This is one part of a sample in which the strongest signals are shown more often than they occur.",
  "data": [
    {"system": "Gal(b1-3)GalNAc(b1-4)[Neu5Ac(a2-3)]Gal(b1-4)Glc", "experiment": "glycan array binding signal (z-score within array); higher = stronger binding", "conditions": "glycan notation: IUPAC condensed, linker removed", "in_short": "(§1)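 Columns mapping to the same glycan were averaged after glycan names were converted to IUPAC-condensed notation. The data come from 3228 arrays in the Consortium for Functional Glycomics database, limited to those with an available protein sequence. Binding is reported as a within-array Z-score averaged across arrays of one protein sequence and across linkers.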", "values": [
      {"substance": "M-Ficolin G221F A256V (Homo sapiens) (chain not printed)", "glycan array binding signal (z-score)": 4.89},
      {"substance": "FGF2 (chain not printed)", "glycan array binding signal (z-score)": -0.77},
      {"substance": "M-Ficolin Y271F (Homo sapiens) (chain not printed)", "glycan array binding signal (z-score)": 5.97},
      {"substance": "Gal 3 (Homo sapiens) (chain not printed)", "glycan array binding signal (z-score)": -0.193},
      {"substance": "STIM-3 (Mus musculus) (chain not printed)", "glycan array binding signal (z-score)": -0.134},
      {"substance": "M-Ficolin (Homo sapiens) (chain not printed)", "glycan array binding signal (z-score)": 3.41},
      {"substance": "M-Ficolin G221F (Homo sapiens) (chain not printed)", "glycan array binding signal (z-score)": 5.8},
      {"substance": "M-Ficolin A256V (Homo sapiens) (chain not printed)", "glycan array binding signal (z-score)": 7.32}
    ]},
    {"system": "Gal(b1-3)GlcNAc(b1-2)Man(a1-3)[Gal(b1-3)GlcNAc(b1-2)Man(a1-6)]Man(b1-4)GlcNAc(b1-4)[Fuc(a1-6)]GlcNAc", "experiment": "glycan array binding signal (z-score within array); higher = stronger binding", "conditions": "glycan notation: IUPAC condensed, linker removed", "in_short": "as §1", "values": [
      {"substance": "FGF2 (chain not printed)", "glycan array binding signal (z-score)": 0.348},
      {"substance": "NCAM1 (Homo sapiens) (chain not printed)", "glycan array binding signal (z-score)": -0.364},
      {"substance": "M-Ficolin (Homo sapiens) (chain not printed)", "glycan array binding signal (z-score)": -0.141}
    ]}
  ]
}
